Test results: the supplement of paper PMC11417369
The other results are listed elsewhere or left out.

Each sequence was assayed on PfAP2-HC AP2 domain (GST-tagged) (assay: gcPBM binding intensity (ln(normalized median fluorescence intensity)); higher = stronger DNA binding).
How it was run: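 DNA-binding domains from P. falciparum, fused to GST and produced in E. coli, were put on an Agilent 4 × 180k double-stranded probe array for 1 h in 1× PBS holding 1% milk, 0.2 mg/ml BSA, 0.5% salmon testes DNA and 0.03% Triton X-100. Probes were primer-extended, 36 bp long and drawn from intergenic genomic regions, with negative controls included. After Alexa488 anti-GST antibody detection and a 488 nm scan, binding intensity was set as the highest Masliner-normalised natural-log median intensity across replicate spots of either probe orientation.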

Sequence | gcPBM binding intensity (ln)
GGTCATCATCGGTATTGTACAAAAATGTGAAAATTA [XGTACX_site639] | 9.52
TTTTATTTAGGAGGTGCATGTAATACGGAACATAAT [TGCATGCA_site827] | 9.55
CCATAACTCCTATGCACACATAAATATTACAGAGAT [CACACA_site5984] | 9.81
TTTGATTTTAATGTGTGTACACATTTATTTATATAA [XGTACX_site4806] | 9.75
GATTTATATTTTAAAAGTACAAGTTAAAATAAAAGT [XGTACX_site7059] | 9.6
AATATAAGATTATTATGTACATAATAAATATGTATT [XGTACX_site4773] | 9.71
ATATAAGTATAATTATGTACTTATACTTATATAAAT [XGTACX_site5585] | 9.57
ATATAATATCTGTATACACACATATTATATAATATT [CACACA_site5940] | 9.91
TTTTGAGAAAAAATAAAATAATAAATAAAAATACAT [XGTACX_negctrl_site66] | 9.57
AATACAATTGAAAATTGTACTTTGTTTTTTATAAAT [XGTACX_site4080] | 9.43
CACATTTCTGTAGTTGCATGTAGAAAAAAAAAAAAA [TGCATGCA_site810] | 9.38
CATATAATAAATAATACACACATATTGGAAATATAT [CACACA_site3212] | 9.89
TTTATTTATTTATATTTTTTTATATAATTTATATAT [GTGCAC_negctrl_site301] | 9.57
AAAGGTATATATGTGTGTACATATATATATATATAT [XGTACX_site5629] | 9.86
AAAAATAAAAAAAAATTAAAATATATATATTTTGTT [TGCATGCA_negctrl_site102] | 9.34
AGGAAAAAAAGTAGCACACAAATATTTATAATATAT [CACACA_site2437] | 10.2
AACATATTTATATACACACACATATTTATATGAAAT [CACACA_site6268] | 10.1
GAGAGGATACATACATGTACATAAATATTTTATTTT [XGTACX_site5129] | 9.69
CGTAGCCGCACTAACACACACAAATATACGCAATCA [CACACA_site2898] | 10.1

Sequence | gcPBM binding intensity (ln)
AAAAAAAAAAAAAATAATAAATAAATAAATAAATAA [GTGCAC_negctrl_site505] | 9.38
ATATTTTGGGTGTTGTTTTTTTTTAAAACTCTTTAA [CACACA_negctrl_site1255] | 9.75
ATTAGTTTATATGAATGATTTTTCTTTTTTTTTTTT [CACACA_negctrl_site88] | 9.52
TTACTATTTCACTGTGCATGCAACAAAAATCTATCT [TGCATGCA_site808] | 9.58
TATCATTTTGAAGTATGTACTTATTTTATTAAAATA [XGTACX_site7784] | 9.51
ATTATATTAAAATATTCACACACTAACGTAAATCAT [CACACA_site8887] | 9.73
TAAATACATAAATACACACACATATATATATATATA [CACACA_site5549] | 10.1
TGTATAAGGTTTTTACGTTTTGAAGGATGTATTGTT [CACACA_negctrl_site1245] | 9.68
TAGGTCATATTTTTTGCACACAAAAAAAAATATAAA [CACACA_site3380] | 9.81
TTTTTCCAATCAGATGCATGTTACTATATTTGGTTC [TGCATGCA_site52] | 9.73
CACCTCAATATTCACATACACACAATATCATCGAAG [CACACA_site1675] | 10
AAGGAAAAAACAAATACACACAAAAACGCATTATAA [CACACA_site3466] | 10.2
ATGAACTTATTTTAGTGTACTAAAAAATATGACTTC [XGTACX_site470] | 9.47
TATGTTCCGAAGGTTGTACACACATAGAAATATACA [CACACA_site9285] | 9.76
GGGAGGATATTACACAGTACCCAGGAAATCTACGGA [XGTACX_site4874] | 9.54
TTTTTTTTTTTTGTAACATGCAAACAACAATATGGG [TGCATGCA_site695] | 9.41
ATGTAATTGTATACATGTACGCAAACACAAAAGCAT [XGTACX_site6771] | 9.97
TACATAATTTTAATCACACACAAACAAACACATACA [CACACA_site194] | 10.2
GTAAGTATATATAATAGTACATATATATTAATATAT [XGTACX_site4314] | 9.76

Sequence | gcPBM binding intensity (ln)
TTTTGTTCATACAAATTGGAACAAGACAAAAATATA [XGTACX_negctrl_site327] | 9.56
TAATATTTTATTTTTGTTGTGGATCCAAAAAAAAAA [CACACA_negctrl_site846] | 9.39
CTATATATTTAAAAAAGTACAAATATAAAAATATAT [XGTACX_site676] | 9.61
TGTTTACACTTTTTTTGTACACATAATTTTATTTGA [XGTACX_site3760] | 9.74
AAAAAAAAAAAAAACACACACATATAACATATTTAA [CACACA_site6745] | 10.5
TATTCTAGTCTGCTTACACACATATTTATATTTATA [CACACA_site7432] | 10.2
TTATTTCTTCAGAAAAAATTAAAAAATTAAACAATA [CACACA_negctrl_site169] | 9.35
ATTTTTTTTTTTTTTTTTTTTTTTTTTTTTTTATGC [CACACA_negctrl_site1018] | 9.21
AATATATGGTTTCATGATATAAAATTCAATTTAATG [GTGCAC_negctrl_site610] | 9.51
TATATATATATATATGTATGCATGTCCTTTTTTATT [TGCATGCA_site344] | 9.65
ATTTTTTTTAAACGAAGTACAATTTGTGCATTGGAA [XGTACX_site8109] | 9.34
TTTTTTTTTTTTGTAGTGCAAATTAAAAATATATGT | 9.39
TGTTTATCATATTTGTGTCCTCATTTTTTAGTATCA [XGTACX_site947] | 9.77
ACAAAAAAAAAGGAAACACACAAAAAAAAAAAATAA [CACACA_site3523] | 9.77
ACCTATAAAAAATAATGTACAGGAAGAAATATAAGG [XGTACX_site5822] | 9.81
ACTATATTTCTATAATGTACAAAAATAAATCATATG [XGTACX_site3337] | 9.46
TAATTTACACCTACGTGTACACACAAAAATATGTTT [XGTACX_site1868] | 10
TTTATTATCAAGATTGCACACCCTTATGAACTTTTT [CACACA_site3166] | 9.82
